Results from article PMC7754472.
No constants are given. Whether binding was seen depends on the method and setting. For some of these results: Binding seen in cells or lysates may run through a third protein. Some binding calls cover weakened binding; strength is not graded here. For some of these results: Where a sequence is shown, tags or fusion partners need not be part of it.

Amino acid sequences for entries named in this document (tags omitted).
UniProt Q06588: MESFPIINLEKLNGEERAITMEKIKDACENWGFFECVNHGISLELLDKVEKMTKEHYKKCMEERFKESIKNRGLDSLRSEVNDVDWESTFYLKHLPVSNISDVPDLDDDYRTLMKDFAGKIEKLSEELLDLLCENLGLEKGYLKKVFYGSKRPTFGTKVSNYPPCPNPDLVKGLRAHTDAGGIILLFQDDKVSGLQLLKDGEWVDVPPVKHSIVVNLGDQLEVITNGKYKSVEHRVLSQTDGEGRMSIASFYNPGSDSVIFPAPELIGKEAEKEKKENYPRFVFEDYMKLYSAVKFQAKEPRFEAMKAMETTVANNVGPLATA
UniProt Q41931: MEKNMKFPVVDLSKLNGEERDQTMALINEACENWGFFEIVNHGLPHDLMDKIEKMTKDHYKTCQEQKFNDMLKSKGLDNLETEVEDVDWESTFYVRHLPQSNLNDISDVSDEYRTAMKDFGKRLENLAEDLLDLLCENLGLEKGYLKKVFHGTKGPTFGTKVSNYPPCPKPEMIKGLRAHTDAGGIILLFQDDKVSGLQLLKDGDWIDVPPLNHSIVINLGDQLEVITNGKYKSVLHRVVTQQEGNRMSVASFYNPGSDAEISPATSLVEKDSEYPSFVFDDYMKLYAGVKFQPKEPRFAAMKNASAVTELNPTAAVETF

Key:
[1] = target: T1, RPW8.1-YC (Arabidopsis (accession Ms-0)) (UniProt Q9C5Z7); test: split reporter; BiFC: YN- and YC-tagged proteins coexpressed in N. benthamiana leaves; YFP fluorescence by confocal microscopy 2 d after infiltration
T1 sequence: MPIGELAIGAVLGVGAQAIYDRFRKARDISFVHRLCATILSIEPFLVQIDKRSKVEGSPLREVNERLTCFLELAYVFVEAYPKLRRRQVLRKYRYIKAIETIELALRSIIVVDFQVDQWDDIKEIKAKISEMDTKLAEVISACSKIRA

[2] = target: T2, RPW8.1 fused to the Gal4 DNA-binding domain (BD) of pGBKT7 (Arabidopsis (accession Ms-0)) (UniProt Q9C5Z7); test: two-hybrid; RPW8.1 or RPW8.2 on the Gal4 BD (pGBKT7) as bait, ACO proteins and fragments on the Gal4 AD (pGADT7) as prey; growth on SD/-Ade/-His/-Leu/-Trp with X-alpha-gal (40 ug/ml) and Aureobasidin A (200 ng/ml), photographed after 3 d
T2 sequence: T1 sequence

[3] = target: T3, YN-RPW8.1 (Arabidopsis (accession Ms-0)) (UniProt Q9C5Z7); test: split reporter; BiFC: YN- and YC-tagged proteins coexpressed in N. benthamiana leaves; YFP fluorescence by confocal microscopy 2 d after infiltration
T3 sequence: T1 sequence

Substance	binding [2]	further results
YN-ACO4 (from UniProt Q06588 1-323) (enzyme)	–	binding [1]: binds
1-aminocyclopropane-1-carboxylate oxidase 4 (ACO4), full length, fused to the Gal4 activation domain (AD) of pGADT7 (from UniProt Q06588 1-323) (enzyme)	binds	–
ACO4-YC (from UniProt Q06588 1-323) (enzyme)	–	binding [3]: binds
ACO2 in the GAL4 activation domain (AD) vector (from UniProt Q41931 1-320) (enzyme)	no binding	–
